# This is one part of the list.
# B1: MpAFP NterminalRI GFP (Marinomonas primoryensis) (protein)
# chain: MSDNQFPFATLGNAIGFITKLDGSVTVQSIDGQERVLKLGDPIFFGETVLTGGSGSVTIAFVDGTDVVIGGDSIVEMTDEIYNTGDNEDLVADSSSEIDALQNAILAGDDPTLIQDAPAAGNTLADQQRVDVSIERNDNSAQAGFGVDTQSSLPTYGYDTDNGNGGQATEREYSAPSLSRTLNQSPLLEHHHHHH
# Tests used:
# Test in all cases: glycan array binding signal (z-score within array); higher = stronger binding
# Details in all cases: glycan notation: IUPAC condensed, linker removed
# [1] = biological target: Gal(b1-3)GlcNAc(b1-6)GalNAc
# In short: (§1)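 Glycan array binding is given as a within-array Z-score, which can be read as non-binding when negative. The arrays, 3228 of them, came from the Consortium for Functional Glycomics database and were retained only where the protein sequence was available. Z-scores were averaged across arrays of the same protein sequence at different concentrations or buffers and across linkers.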
# [2] = biological target: Gal(b1-3)GlcNAc(b1-6)[Gal(b1-3)]GalNAc
# In short: as §1
# Gal(b1-3)GlcNAc6S = biological target: Gal(b1-3)GlcNAc6S
# In short: as §1
# [3] = biological target: Gal(b1-3)[Fuc(a1-4)]GlcNAc
# In short: as §1
# [4] = biological target: Gal(b1-3)[Fuc(a1-4)]GlcNAc(b1-2)Man
# In short: as §1
# [5] = biological target: Gal(b1-3)[Fuc(a1-4)]GlcNAc(b1-2)Man(a1-3)[Gal(b1-3)[Fuc(a1-4)]GlcNAc(b1-2)Man(a1-6)]Man(b1-4)GlcNAc(b1-4)[Fuc(a1-6)]GlcNAc
# In short: as §1
# [6] = biological target: Gal(b1-3)[Fuc(a1-4)]GlcNAc(b1-3)Gal(b1-3)[Fuc(a1-4)]GlcNAc
# In short: as §1
# [7] = biological target: Gal(b1-3)[Fuc(a1-4)]GlcNAc(b1-3)Gal(b1-4)[Fuc(a1-3)]GlcNAc
# In short: as §1
# [8] = biological target: Gal(b1-3)[Fuc(a1-4)]GlcNAc(b1-6)GalNAc
# In short: as §1
# [9] = biological target: Gal(b1-3)[GlcNAc(b1-6)]GalNAc
# In short: as §1
# [10] = biological target: Gal(b1-3)[Neu5Ac(a2-6)]GalNAc
# In short: as §1
# [11] = biological target: Gal(b1-3)[Neu5Ac(a2-6)]GlcNAc(b1-4)Gal(b1-4)Glc
# In short: as §1
# [12] = biological target: Gal(b1-3)[Neu5Ac(b2-6)]GalNAc
# In short: as §1
# Gal(b1-4)Gal = biological target: Gal(b1-4)Gal
# In short: as §1
# [13] = biological target: Gal(b1-4)GalNAc(a1-3)[Fuc(a1-2)]Gal(b1-4)GlcNAc
# In short: as §1
# [14] = biological target: Gal(b1-4)GalNAc(b1-3)[Fuc(a1-2)]Gal(b1-4)GlcNAc
# In short: as §1
# Gal(b1-4)Glc = biological target: Gal(b1-4)Glc
# In short: as §1
# Gal(b1-4)Glc6S = biological target: Gal(b1-4)Glc6S
# In short: as §1
# Gal(b1-4)GlcNAc = biological target: Gal(b1-4)GlcNAc
# In short: as §1
# [15] = biological target: Gal(b1-4)GlcNAc(a1-6)Gal(b1-4)GlcNAc
# In short: as §1
# Gal(b1-4)GlcNAc(b1-2)Man = biological target: Gal(b1-4)GlcNAc(b1-2)Man
# In short: as §1
# [16] = biological target: Gal(b1-4)GlcNAc(b1-2)Man(a1-3)Man(b1-4)GlcNAc(b1-4)GlcNAc
# In short: as §1
# [17] = biological target: Gal(b1-4)GlcNAc(b1-2)Man(a1-3)[Gal(b1-4)GlcNAc(b1-2)Man(a1-6)]Man(b1-4)GlcNAc(b1-4)GlcNAc
# In short: as §1
# [18] = biological target: Gal(b1-4)GlcNAc(b1-2)Man(a1-3)[Gal(b1-4)GlcNAc(b1-2)Man(a1-6)]Man(b1-4)GlcNAc(b1-4)[Fuc(a1-6)]GlcNAc
# In short: as §1
# [19] = biological target: Gal(b1-4)GlcNAc(b1-2)Man(a1-3)[Gal(b1-4)GlcNAc(b1-2)Man(a1-6)][Gal(b1-4)GlcNAc(b1-4)]Man(b1-4)GlcNAc(b1-4)[Fuc(a1-6)]GlcNAc
# In short: as §1
# [20] = biological target: Gal(b1-4)GlcNAc(b1-2)Man(a1-3)[Gal(b1-4)GlcNAc(b1-2)Man(a1-6)][GlcNAc(b1-4)]Man(b1-4)GlcNAc(b1-4)[Fuc(a1-6)]GlcNAc
# In short: as §1
# [21] = biological target: Gal(b1-4)GlcNAc(b1-2)Man(a1-3)[GlcNAc(b1-2)Man(a1-6)]Man(b1-4)GlcNAc(b1-4)GlcNAc
# In short: as §1
# [22] = biological target: Gal(b1-4)GlcNAc(b1-2)Man(a1-3)[GlcNAc(b1-4)][Gal(b1-4)GlcNAc(b1-2)Man(a1-6)]Man(b1-4)GlcNAc(b1-4)GlcNAc
# In short: as §1
# [23] = biological target: Gal(b1-4)GlcNAc(b1-2)Man(a1-3)[Man(a1-6)]Man(b1-4)GlcNAc(b1-4)GlcNAc
# In short: as §1
# [24] = biological target: Gal(b1-4)GlcNAc(b1-2)Man(a1-6)Man(b1-4)GlcNAc(b1-4)GlcNAc
# In short: as §1
# [25] = biological target: Gal(b1-4)GlcNAc(b1-2)Man(a1-6)[GlcNAc(b1-2)Man(a1-3)]Man(b1-4)GlcNAc(b1-4)GlcNAc
# In short: as §1
# [26] = biological target: Gal(b1-4)GlcNAc(b1-2)Man(a1-6)[Man(a1-3)]Man(b1-4)GlcNAc(b1-4)GlcNAc
# In short: as §1
# [27] = biological target: Gal(b1-4)GlcNAc(b1-2)[Gal(b1-4)GlcNAc(b1-4)]Man(a1-3)[Gal(b1-4)GlcNAc(b1-2)Man(a1-6)]Man(b1-4)GlcNAc(b1-4)GlcNAc
# In short: as §1
# [28] = biological target: Gal(b1-4)GlcNAc(b1-2)[Gal(b1-4)GlcNAc(b1-4)]Man(a1-3)[Gal(b1-4)GlcNAc(b1-2)[Gal(b1-4)GlcNAc(b1-6)]Man(a1-6)]Man(b1-4)GlcNAc(b1-4)GlcNAc
# In short: as §1
# [29] = biological target: Gal(b1-4)GlcNAc(b1-2)[Gal(b1-4)GlcNAc(b1-4)]Man(a1-3)[GlcNAc(b1-4)][Gal(b1-4)GlcNAc(b1-2)Man(a1-6)]Man(b1-4)GlcNAc(b1-4)GlcNAc
# In short: as §1
# [30] = biological target: Gal(b1-4)GlcNAc(b1-2)[Gal(b1-4)GlcNAc(b1-4)]Man(a1-3)[GlcNAc(b1-4)][Gal(b1-4)GlcNAc(b1-2)[Gal(b1-4)GlcNAc(b1-6)]Man(a1-6)]Man(b1-4)GlcNAc(b1-4)GlcNAc
# In short: as §1
# [31] = biological target: Gal(b1-4)GlcNAc(b1-2)[Gal(b1-4)GlcNAc(b1-6)]Man(a1-6)[Gal(b1-4)GlcNAc(b1-2)Man(a1-3)]Man(b1-4)GlcNAc(b1-4)GlcNAc
# In short: as §1
# [32] = biological target: Gal(b1-4)GlcNAc(b1-2)[Gal(b1-4)GlcNAc(b1-6)]Man(a1-6)[Gal(b1-4)GlcNAc(b1-2)Man(a1-3)]Man(b1-4)GlcNAc(b1-4)[Fuc(a1-6)]GlcNAc
# In short: as §1
# [33] = biological target: Gal(b1-4)GlcNAc(b1-2)[Gal(b1-4)GlcNAc(b1-6)]Man(a1-6)[GlcNAc(b1-4)][Gal(b1-4)GlcNAc(b1-2)Man(a1-3)]Man(b1-4)GlcNAc(b1-4)GlcNAc
# In short: as §1
# [34] = biological target: Gal(b1-4)GlcNAc(b1-2)[Gal(b1-4)GlcNAc(b1-6)]Man(a1-6)[GlcNAc(b1-4)][Gal(b1-4)GlcNAc(b1-2)[Gal(b1-4)GlcNAc(b1-4)]Man(a1-3)]Man(b1-4)GlcNAc(b1-4)[Fuc(a1-6)]GlcNAc
# In short: as §1
# [35] = biological target: Gal(b1-4)GlcNAc(b1-3)Gal(b1-3)GalNAc
# In short: as §1
# [36] = biological target: Gal(b1-4)GlcNAc(b1-3)Gal(b1-3)GlcNAc
# In short: as §1
# [37] = biological target: Gal(b1-4)GlcNAc(b1-3)Gal(b1-4)Glc
# In short: as §1
# [38] = biological target: Gal(b1-4)GlcNAc(b1-3)Gal(b1-4)GlcNAc
# In short: as §1
# [39] = biological target: Gal(b1-4)GlcNAc(b1-3)Gal(b1-4)GlcNAc(b1-2)Man(a1-3)[Gal(b1-4)GlcNAc(b1-3)Gal(b1-4)GlcNAc(b1-2)Man(a1-6)]Man(b1-4)GlcNAc(b1-4)GlcNAc
# In short: as §1
binder,measurement,setting,value
B1,glycan array binding signal (z-score),[1],-0.346
same,glycan array binding signal (z-score),[2],-0.392
same,glycan array binding signal (z-score),Gal(b1-3)GlcNAc6S,-0.445
same,glycan array binding signal (z-score),[3],-0.329
same,glycan array binding signal (z-score),[4],0.17
same,glycan array binding signal (z-score),[5],1.85
same,glycan array binding signal (z-score),[6],-0.419
same,glycan array binding signal (z-score),[7],-0.359
same,glycan array binding signal (z-score),[8],-0.079
same,glycan array binding signal (z-score),[9],-0.473
same,glycan array binding signal (z-score),[10],-0.003
same,glycan array binding signal (z-score),[11],-0.565
same,glycan array binding signal (z-score),[12],-0.76
same,glycan array binding signal (z-score),Gal(b1-4)Gal,-0.299
same,glycan array binding signal (z-score),[13],-0.492
same,glycan array binding signal (z-score),[14],-0.315
same,glycan array binding signal (z-score),Gal(b1-4)Glc,-0.294
same,glycan array binding signal (z-score),Gal(b1-4)Glc6S,-0.333
same,glycan array binding signal (z-score),Gal(b1-4)GlcNAc,0.037
same,glycan array binding signal (z-score),[15],-0.681
same,glycan array binding signal (z-score),Gal(b1-4)GlcNAc(b1-2)Man,0.934
same,glycan array binding signal (z-score),[16],-0.283
same,glycan array binding signal (z-score),[17],-0.39
same,glycan array binding signal (z-score),[18],-0.334
same,glycan array binding signal (z-score),[19],-0.287
same,glycan array binding signal (z-score),[20],-0.47
same,glycan array binding signal (z-score),[21],-0.455
same,glycan array binding signal (z-score),[22],-0.258
same,glycan array binding signal (z-score),[23],0.863
same,glycan array binding signal (z-score),[24],-0.469
same,glycan array binding signal (z-score),[25],0.027
same,glycan array binding signal (z-score),[26],-0.506
same,glycan array binding signal (z-score),[27],-0.11
same,glycan array binding signal (z-score),[28],-0.309
same,glycan array binding signal (z-score),[29],-0.371
same,glycan array binding signal (z-score),[30],-0.342
same,glycan array binding signal (z-score),[31],-0.449
same,glycan array binding signal (z-score),[32],-0.054
same,glycan array binding signal (z-score),[33],-0.293
same,glycan array binding signal (z-score),[34],-0.156
same,glycan array binding signal (z-score),[35],-0.412
same,glycan array binding signal (z-score),[36],1.27
same,glycan array binding signal (z-score),[37],-0.31
same,glycan array binding signal (z-score),[38],-0.541
same,glycan array binding signal (z-score),[39],1.24

# From the supplement of paper PMC8728848
